# In ChEMBL document CHEMBL5606460, “ASAP - DENV-2 NS2B-NS3 protease fluorescence single point” (2024):
# The campaign covered roughly 2,000 compounds. About 110 (5.5%) showed an effect of 50% or more. Some of the results follow.
# Target: Genome polyprotein (dengue virus type 2) (UniProt P29990)
# [1] = Thailand/16681/1984, Concentration 25.0 uM, Number of replicates 1.0
structure (smiles),measurement,setting,value
Cc1nc2ccccc2n1C1CCN(C(=O)c2ccc3c(c2)B(O)OC3)CC1,inhibition,"Thailand/16681/1984, Concentration 49.5 uM, Number of replicates 2.0, Standard deviation 0.13633788996849533 %",-0.912%
same,inhibition,"Thailand/16681/1984, Concentration 99.01 uM, Number of replicates 2.0, Standard deviation 0.32476501732804397 %",-0.37%
same,inhibition,"Thailand/16681/1984, Concentration 198.0 uM, Number of replicates 2.0, Standard deviation 1.3153663056794043 %",2.34%
O=Cc1ccc(N2CCC(C(=O)N3CCN(S(=O)(=O)c4cccc(Br)c4)CC3)CC2)cc1,inhibition,[1],-1.79%
CNC(=O)[C@H]1CCCN1S(=O)(=O)c1ccc(Oc2ccccc2Cl)cc1,inhibition,"Thailand/16681/1984, Concentration 49.5 uM, Number of replicates 2.0, Standard deviation 0.43290983719310167 %",-4.62%
same,inhibition,"Thailand/16681/1984, Concentration 99.01 uM, Number of replicates 2.0, Standard deviation 1.120416310773355 %",-4.38%
same,inhibition,"Thailand/16681/1984, Concentration 198.0 uM, Number of replicates 2.0, Standard deviation 0.24124704358981106 %",-3.59%
Cc1cnccc1NC(=O)c1ccccc1-c1nc(C(C)C)no1,inhibition,"Thailand/16681/1984, Concentration 49.5 uM, Number of replicates 2.0, Standard deviation 1.5026989952869583 %",-0.789%
same,inhibition,"Thailand/16681/1984, Concentration 99.01 uM, Number of replicates 2.0, Standard deviation 3.3296993188113557 %",-1.39%
same,inhibition,"Thailand/16681/1984, Concentration 198.0 uM, Number of replicates 2.0, Standard deviation 2.70881841476973 %",-1.05%
CCN(Cc1ccc(F)cc1)C(=O)C1CCN(c2ccc(C=O)cc2)CC1,inhibition,[1],13.8%
O=Cc1ccc(N2CCC(C(=O)Nc3ccc(F)nc3Br)CC2)cc1,inhibition,[1],11.5%
CNC(=O)c1cc(Cl)c(OC)cc1NS(=O)(=O)c1ccc(Oc2ccccc2Cl)cc1,inhibition,"Thailand/16681/1984, Concentration 49.5 uM, Number of replicates 2.0, Standard deviation 1.7443589304782063 %",79.2%
same,inhibition,"Thailand/16681/1984, Concentration 99.01 uM, Number of replicates 2.0, Standard deviation 0.14348540542006383 %",98.5%
same,inhibition,"Thailand/16681/1984, Concentration 198.0 uM, Number of replicates 2.0, Standard deviation 0.05118043543332502 %",99.3%
Cc1cc(Cl)c2c(N)ccc(C)c2n1,inhibition,"Thailand/16681/1984, Concentration 49.95 uM, Number of replicates 2.0, Standard deviation 5.268842944255752 %",34.7%
same,inhibition,"Thailand/16681/1984, Concentration 99.9 uM, Number of replicates 2.0, Standard deviation 0.5758298004935433 %",94.7%
Cc1cc(CO)c2cccc(Cc3cccc(C(=O)Nc4cc(C)[nH]n4)c3)c2n1,inhibition,"Thailand/16681/1984, Concentration 49.95 uM, Number of replicates 2.0, Standard deviation 1.9137700846759278 %",0.711%
same,inhibition,"Thailand/16681/1984, Concentration 99.9 uM, Number of replicates 2.0, Standard deviation 1.69961162141419 %",3.33%
CCCC[C@H](NC(C)=O)C(=O)N[C@H](C(=O)Nc1cccc(C(N)=O)c1)c1ccc(OCc2ccccc2)cc1,inhibition,"Thailand/16681/1984, Concentration 49.5 uM, Number of replicates 2.0, Standard deviation 1.3015902921422546 %",-0.513%
same,inhibition,"Thailand/16681/1984, Concentration 99.01 uM, Number of replicates 2.0, Standard deviation 0.5153915569037094 %",3.33%
same,inhibition,"Thailand/16681/1984, Concentration 198.0 uM, Number of replicates 2.0, Standard deviation 0.5711740910196359 %",8.87%
CC(=O)N[C@@H](CCCN)C(=O)Nc1cccc2c(CO)cc(C)nc12,inhibition,"Thailand/16681/1984, Concentration 99.9 uM, Number of replicates 2.0, Standard deviation 2.7664513641226787 %",9.57%
N#Cc1cc(F)c(NC(=O)C2CCN(c3ccc(C=O)cc3)CC2)cc1F,inhibition,[1],15.7%
Cc1cc(CO)c2cccc(Cc3cccc(C(=O)NCc4c(C)noc4C)c3)c2n1,inhibition,"Thailand/16681/1984, Concentration 49.95 uM, Number of replicates 2.0, Standard deviation 0.7006856245222158 %",1.58%
same,inhibition,"Thailand/16681/1984, Concentration 99.9 uM, Number of replicates 2.0, Standard deviation 0.008623919554905093 %",5.27%
COc1cccc(F)c1CNC(=O)C1CCN(c2ccc(C=O)cc2)CC1,inhibition,[1],13.5%
CCC(=O)Nc1cncc(C(=O)Nc2ccncc2C)c1,inhibition,"Thailand/16681/1984, Concentration 49.5 uM, Number of replicates 2.0, Standard deviation 1.9596666118582906 %",-3.96%
same,inhibition,"Thailand/16681/1984, Concentration 99.01 uM, Number of replicates 2.0, Standard deviation 0.9541367095668413 %",-3.15%
same,inhibition,"Thailand/16681/1984, Concentration 198.0 uM, Number of replicates 2.0, Standard deviation 0.14992561245992247 %",-2.19%
CC(C)Cn1cccc(C(=O)N[C@H]2CCCNC2)c1=O,inhibition,"Thailand/16681/1984, Concentration 49.5 uM, Number of replicates 2.0, Standard deviation 0.9832777149768497 %",-2.91%
same,inhibition,"Thailand/16681/1984, Concentration 99.01 uM, Number of replicates 2.0, Standard deviation 0.4214046747802948 %",-2.03%
same,inhibition,"Thailand/16681/1984, Concentration 198.0 uM, Number of replicates 2.0, Standard deviation 1.2642143615156725 %",-2.78%
CCN(CC)CCN(CCN(CC)CC)C(=O)C1CCN(c2ccc(C=O)cc2)CC1,inhibition,[1],11.4%
Cc1ncoc1CN1CCC(c2c[nH]c3cccnc23)CC1,inhibition,"Thailand/16681/1984, Concentration 49.5 uM, Number of replicates 2.0, Standard deviation 1.1442724807017337 %",0.186%
same,inhibition,"Thailand/16681/1984, Concentration 99.01 uM, Number of replicates 2.0, Standard deviation 0.7941869328039364 %",0.045%
same,inhibition,"Thailand/16681/1984, Concentration 198.0 uM, Number of replicates 2.0, Standard deviation 1.585075116068622 %",0.349%
O=Cc1ccc(N2CCC(C(=O)NC(c3ccccc3)(c3ccccc3)c3ccccc3)CC2)cc1,inhibition,[1],21.2%
O=Cc1ccc(N2CCC(C(=O)Nc3cnc(Br)c(Cl)n3)CC2)cc1,inhibition,[1],10.2%
O=Cc1ccc(N2CCC(C(=O)Nc3ccc(OCc4ccccc4)cc3)CC2)cc1,inhibition,[1],2.32%
O=Cc1ccc(N2CCC(C(=O)N3CCCN(c4ccc(C(F)(F)F)cn4)CC3)CC2)cc1,inhibition,[1],9.22%
CCCCCC(=O)N[C@H](C(=O)NCc1cccc(CN)c1)C1CCCCC1,inhibition,"Thailand/16681/1984, Concentration 49.5 uM, Number of replicates 2.0, Standard deviation 0.5123754441305728 %",-1.52%
same,inhibition,"Thailand/16681/1984, Concentration 99.01 uM, Number of replicates 2.0, Standard deviation 0.1437325545397317 %",-1.37%
same,inhibition,"Thailand/16681/1984, Concentration 198.0 uM, Number of replicates 2.0, Standard deviation 1.0834855562341692 %",16%
